{
  "source": "PubChem BioAssay AID686979",
  "about": "(National Center for Advancing Translational Sciences (NCATS), 2013)",
  "note": "Values joined by “and” are separate entries in the source; they are usually repeats but may differ in a detail not shown here. Equal entries are not always repeated. Among all 420,000 compounds or so, about 50,000 (12%) were called active. Inconclusive results, whose numbers are uncertain, are shown with a selection of clear calls. Calls come from the whole dose curve; as a rule, active = well fitted inhibition curve with a large enough effect; inconclusive = small, poorly fitted or top-dose-only effect; inactive = flat fitted curve, though single readings scatter. Potencies of inconclusive entries are left out as doubtful fits. % is set by controls: 0 for no effect and ±100 for the full control effect; potency is the fitted concentration of half-maximal effect; tags give direction and shape of the fitted curve.",
  "data": [
    {"test": "qHTS for Inhibitors of human tyrosyl-DNA phosphodiesterase 1 (TDP1): qHTS in cells in presence of CPT; note: nearly all actives have a fitted effect of over 55% in size", "settings": "chicken DT40 Tdp1-/-;hTDP1 cells + 20 nM CPT, ATP luminescence, 48 h; activity change, negative = growth inhibition: at 46.2 µM (top of the series)", "method_in_brief": "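Chicken DT40 Tdp1-/- cells stably complemented with human TDP1 were seeded at 400 cells/well in medium containing 20 nM camptothecin, exposed to pin-transferred compounds, and grown at 37 °C for at least 48 hr. Viability was read as ATP luminescence.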", "values": [
      {"smiles": "C[C@@H]1CN([C@@H](C)CO)C(=O)CCCn2nncc2CO[C@@H]1CN(C)C(=O)Nc1ccc(-c2cccs2)cc1", "activity change, negative = growth inhibition": "inactive: -17.9%"},
      {"smiles": "CCNC(=O)C1(C)CCCN1C(=O)c1ccc(-c2ccccc2)cc1", "note": "(centres undefined)", "Potency": "inconclusive [inhibitor, partial curve]"},
      {"smiles": "COc1ccccc1NC(=O)Cc1nn(C)c(=O)c2ccccc12", "Potency": "active: 16.4 µM"},
      {"smiles": "COc1ccc(OCCN2CCC(C(=O)NC(c3ccc(Cl)cc3)c3cnccn3)CC2)cc1", "note": "(centres undefined)", "Potency": "inconclusive [inhibitor, single point]"},
      {"smiles": "CCCCc1nn2c(=O)cc(COC(=O)c3cccc(OC)c3)nc2s1", "Potency": "inconclusive [inhibitor, partial curve, poor fit]"},
      {"smiles": "Cc1cccc(OCC(=O)NCC(C)(C)N2CCOCC2)c1", "activity change, negative = growth inhibition": "inactive: -11.5%"},
      {"smiles": "Cc1cc(C)nc(NS(=O)(=O)c2ccc(N=Cc3c(C)[nH]n(-c4ccccc4)c3=O)cc2)n1", "Potency": "active: 20.6 µM"},
      {"smiles": "CN(C)S(=O)(=O)N1CCC(c2ccc(F)cc2)C(COc2ccc3c(c2)OCO3)C1", "note": "(centres undefined)", "Potency": "inconclusive [inhibitor, single point]"},
      {"smiles": "Cc1ccc(O)c(CP(=O)(c2ccccc2)c2ccccc2)c1", "Potency": "inconclusive [inhibitor, single point]"},
      {"smiles": "CCc1nnc2c(Nc3cccc(C(C)=O)c3)nc3ccccc3n12", "Potency": "inconclusive [inhibitor, full curve]"},
      {"smiles": "CC(C)c1nnc(NC(=O)CCS(=O)(=O)c2nc(-c3cccs3)cc(C(F)(F)F)n2)s1", "Potency": "active: 2.91 µM"},
      {"smiles": "CCCCSCCCNC(=O)c1ccc(CS(=O)(=O)c2ccccc2OC)o1", "Potency": "inconclusive [inhibitor, single point]"},
      {"smiles": "COc1ccc(S(=O)(=O)N2CCC(C(=O)N3CCC(C(N)=O)CC3)CC2)cc1Cl", "activity change, negative = growth inhibition": "inactive: 5.94%"},
      {"smiles": "O=[N+]([O-])c1cc([N+](=O)[O-])c(Oc2ccc(Br)cc2Br)cc1NN1CCCCC1", "Potency": "inconclusive [inhibitor, single point]"},
      {"smiles": "Cn1c(=O)c2cc(NC(=O)NCc3ccc(F)cc3)ccc2n1Cc1cccc(C(F)(F)F)c1", "Potency": "active: 20.6 µM"},
      {"smiles": "CC(=O)c1cc(-c2ccccc2)n(CCC(=O)NCc2cccs2)c1C", "activity change, negative = growth inhibition": "inactive: 6.31%"},
      {"smiles": "CCc1ccc(CNC(=O)c2ccc3c(c2)nc2n3CCC(C)C2)cc1", "note": "(centres undefined)", "activity change, negative = growth inhibition": "inactive: -28.4%"},
      {"smiles": "CC(C)=CCCC1(C)C=Cc2c(ccc3c2[nH]c2cc(O)c(C)cc23)O1", "note": "(centres undefined)", "Potency": "active: 16.4 µM"},
      {"smiles": "O=C(CN1CCN(C(=O)c2ccc(-c3nc4ccccc4s3)o2)CC1)Nc1ccccc1Cl", "Potency": "inconclusive [inhibitor, single point]"},
      {"smiles": "COc1ccc(-c2onc(C)c2C)cc1S(=O)(=O)NCc1ccco1", "Potency": "inconclusive [inhibitor, single point]"},
      {"smiles": "CCCc1cc(-c2[nH]ncc2-c2ccc3c(c2)OCCCO3)c(O)cc1O", "Potency": "inconclusive [inhibitor, partial curve]"},
      {"smiles": "CCOc1ccc(NC(=O)NCCCn2c(C)nc3cc(C)c(C)cc32)cc1", "Potency": "inconclusive [inhibitor, partial curve]"},
      {"smiles": "C/C(=N\\NC(=O)c1nnn(-c2nonc2N)c1-c1ccccc1)c1ccco1", "activity change, negative = growth inhibition": "inactive: -4.44%"},
      {"smiles": "CCOc1ccc(C(=O)NCc2ccc3c(c2)CCN3C(=O)c2ccccc2)cc1", "Potency": "active: 13 µM"},
      {"smiles": "CCOC(=O)c1ccc2ncc(C(=O)OCC)c(NCCN(C)C)c2c1", "activity change, negative = growth inhibition": "inactive: 2.59%"},
      {"smiles": "COc1ccc(CNS(=O)(=O)c2ccc3c(c2)N(C(C)=O)CC(C)S3)cc1", "note": "(centres undefined)", "Potency": "inconclusive [inhibitor, single point]"},
      {"smiles": "CCC(C)Oc1cccc(OCCCCN2C(=O)NC(C)(C)C2=O)c1", "note": "(centres undefined)", "Potency": "inconclusive [inhibitor, partial curve]"},
      {"smiles": "O=C(O)c1ccc(C2Nc3ccccc3C(=O)N2Cc2ccccc2)cc1", "note": "(centres undefined)", "activity change, negative = growth inhibition": "inactive: -9.91%"},
      {"smiles": "CCOc1ccc(C(=O)/C=C/c2ccc(SC)cc2)cc1", "Potency": "inconclusive [inhibitor, single point]"},
      {"smiles": "Cc1ccc(CN2CCCC(C(=O)N3CCCC3)C2)cc1", "note": "(centres undefined)", "activity change, negative = growth inhibition": "inactive: 8.47%"},
      {"smiles": "O=C(NCCCN1CCOCC1)c1cc(-c2ccc(F)cc2)nc2ccccc12", "Potency": "inconclusive [inhibitor, single point]"},
      {"smiles": "CSc1ccc(Cn2c(C)c(C(=O)NCCC#N)sc2=O)cc1", "activity change, negative = growth inhibition": "inactive: -11.4%"},
      {"smiles": "CC(C)(C)c1nnc(NC(=O)Cc2ccccc2[N+](=O)[O-])s1", "activity change, negative = growth inhibition": "inactive: -4.21%"},
      {"smiles": "Cn1c(=O)n(C)c2cc([N+](=O)[O-])c(N3CCN(S(=O)(=O)c4ccc(C(C)(C)C)cc4)CC3)cc21", "Potency": "active: 20.6 µM"},
      {"smiles": "CCOc1cc2[nH]c(=S)n(CCCN3CCOCC3)c(=O)c2cc1OCC", "Potency": "inconclusive [inhibitor, single point]"},
      {"smiles": "CCCCc1nn2c(=O)cc(COC(=O)COc3ccc(C)cc3)nc2s1", "activity change, negative = growth inhibition": "inactive: -14.3%"},
      {"smiles": "C=CCNC(=S)N/N=C/c1ccc(OCc2ccccc2Cl)cc1", "Potency": "inconclusive [inhibitor, single point]"},
      {"smiles": "CSc1ccc(CN(C)CC(=O)Nc2ccc(C)cc2Br)cc1", "Potency": "inconclusive [inhibitor, single point]"},
      {"smiles": "O=C(C1CCN(Cc2ccc(F)cc2)CC1)N(CCc1ccccc1)Cc1ccccc1", "Potency": "active: 23.1 µM"},
      {"smiles": "O=C(Oc1ccccc1)N1CCC2(CC1)CCN(c1ccccc1)CC2", "Potency": "inconclusive [inhibitor, single point]"},
      {"smiles": "CCc1ccc(NC(=O)CSC2=Nc3ccccc3C3=NC(CCC(=O)NCCc4ccccc4)C(=O)N23)cc1", "note": "(centres undefined)", "Potency": "active: 23.1 µM"},
      {"smiles": "CCn1nc(C)cc1C(=O)Sc1ccc(Cl)cc1Cl", "Potency": "active: 3.66 µM"},
      {"smiles": "COc1ccc(/C=C\\c2onc(C)c2S(=O)(=O)N2CCC(C(=O)Nc3ccc(C)cc3C)CC2)cc1", "Potency": "inconclusive [inhibitor, partial curve]"},
      {"smiles": "O=C(CC1C(=O)NCCN1Cc1ccc(F)cc1)NCCN1CCCc2ccccc21", "note": "(centres undefined)", "Potency": "inconclusive [inhibitor, single point]"},
      {"smiles": "CC1=C(C(=O)Nc2ccc(C)cc2C)C(c2ccc(O)cc2)n2nnnc2N1", "note": "(centres undefined)", "activity change, negative = growth inhibition": "inactive: -20.9%"},
      {"smiles": "CCc1nc2ccc(C(=O)NCCCN3CCCC3=O)cn2c1N(CCC(C)C)CCN(C)C", "activity change, negative = growth inhibition": "inactive: -21.6%"},
      {"smiles": "CCn1c(=O)c(C(=O)CN(C)CC(=O)Nc2cccc(F)c2)c(N)n(Cc2ccccc2)c1=O", "Potency": "inconclusive [inhibitor, single point]"},
      {"smiles": "O=C(c1ccco1)N1CCN(c2ncnc3c2[nH]c2ccc(Br)cc23)CC1", "Potency": "inconclusive [inhibitor, single point]"},
      {"smiles": "CCn1c(COc2ccc(Cl)cc2)nnc1SC1CCc2ccccc2C1=O", "note": "(centres undefined)", "Potency": "inconclusive [inhibitor, single point]"},
      {"smiles": "COC(=O)CCC(=O)Nc1ccccc1C(=O)Nc1ccccc1", "activity change, negative = growth inhibition": "inactive: -4.38%"},
      {"smiles": "CCN(CC)S(=O)(=O)c1ccc(C(=O)/C=C/c2ccc(-c3ccc([N+](=O)[O-])cc3)o2)cc1", "Potency": "inconclusive [inhibitor, partial curve]"},
      {"smiles": "CCC12CN3CC(C)(CN(C1)C3c1c[nH]c3ccccc13)C2=O", "note": "(centres undefined)", "Potency": "inconclusive [inhibitor, single point]"},
      {"smiles": "COc1cc(C(=O)OCC(=O)N2c3ccccc3NC(=O)C2(C)C)ccc1OCC(C)C", "Potency": "inconclusive [inhibitor, single point]"},
      {"smiles": "O=C(NCCCN1CCOCC1)c1ccc2c(=O)n(Cc3ccc(Cl)cc3)c(=S)[nH]c2c1", "Potency": "inconclusive [inhibitor, full curve, poor fit]"},
      {"smiles": "CCc1nc2ccc(C(=O)NCc3ccccc3OC)cn2c1N(C)C(=O)Cc1ccccc1", "Potency": "inconclusive [inhibitor, single point]"},
      {"smiles": "O=S(=O)(c1ccc(N2CCC(c3ccc(Cl)cc3)=N2)cc1)N(CCO)CCO", "Potency": "inconclusive [inhibitor, single point]"},
      {"smiles": "CCC(=O)N1CCc2cc(S(=O)(=O)NC(CC(C)C)C(=O)Nc3cc(C)ccc3OC)ccc21", "note": "(centres undefined)", "Potency": "active: 18.4 µM"},
      {"smiles": "O=S(=O)(c1ccc2[nH]c3c(c2c1)CCCC3)N1CCCCC1", "Potency": "inconclusive [inhibitor, single point]"},
      {"smiles": "CCNC(=S)Nc1cc(OCC)c(NC(=O)c2ccco2)cc1OCC", "Potency": "inconclusive [inhibitor, single point]"},
      {"smiles": "Cc1cc(C)cc(N(CC(=O)NCCSc2ccccn2)S(=O)(=O)c2ccccc2)c1", "Potency": "inconclusive [inhibitor, single point]"},
      {"smiles": "O=C(Nc1ccc(F)cc1Cl)n1ncc2cc(Cl)ccc21", "Potency": "inconclusive [inhibitor, single point]"},
      {"smiles": "CCCCC[C@H]1CN(Cc2ccc(OC)cc2)C(=O)[C@@H]1CC(=O)NCc1ccccc1", "Potency": "active: 11.6 µM"},
      {"smiles": "CCOC(=O)c1sc(C)c2c(=O)n(CCCN3CCOCC3)cnc12", "activity change, negative = growth inhibition": "inactive: 6.8%"},
      {"smiles": "O=C1CCN(CCc2ccccc2)CCN1[C@H](CSc1ccccc1)Cc1ccccc1", "Potency": "active: 10 µM and active: 20.6 µM"},
      {"smiles": "COC(=O)c1cccc2c1-c1ccccc1/C2=N\\NC(N)=O", "Potency": "inconclusive [inhibitor, single point]"},
      {"smiles": "Fc1ccccc1OCCCn1ccnc1", "activity change, negative = growth inhibition": "inactive: -12.7%"},
      {"smiles": "Cc1ccc(S(=O)(=O)N(CCCc2c(C)nc[nH]c2=O)c2ccccc2)cc1", "Potency": "inconclusive [inhibitor, single point]"},
      {"smiles": "CN1CC(c2ccccc2Cl)C2(COc3ccccc3C2=O)C12C(=O)Nc1ccccc12", "note": "(centres undefined)", "Potency": "inconclusive [inhibitor, single point]"},
      {"smiles": "CC(C)CN1C(=O)/C(=C/c2cccs2)NC1=S", "Potency": "inconclusive [inhibitor, single point]"}
    ]}
  ]
}
